# Assay results published in the supplement of paper PMC12217912.
# This is one part of the list. Sequences were assembled here from the parent chain. Values near 0.05 are background.
# B1: TEV protease; numbered along this chain (parent)
# chain: MGESLFKGPRDYNPISSSICHLTNESDGHTTSLYGIGFGPFIITNKHLFRRNNGTLVVQSLHGVFKVKDTTTLQQHLVDGRDMIIIRMPKDFPPFPQKLKFREPQREERICLVTTNFQTKSMSSMVSDTSCTFPSGDGIFWKHWIQTKDGQCGSPLVSTRDGFIVGIHSASNFTNTNNYFTSVPKNFMELLTNQEAQQWVSGWRLNADSVLWGGHKVFMVKPEEPFQPVKEATQL
# Variants of: B1
# Assay: raw area under fraction-flipped curve 0-4 h after induction (AUC4h, not background-subtracted), DNA-recorder readout of cleavage of the substrate (dimensionless); higher = more cleavage of the substrate by the protease variant
# Conditions: temperature: 34 °C; time window: 0-4 h after rhamnose induction
# Method: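 In vivo DNA recorder in E. coli TOP10(DE3) ΔrhaA at 34 °C. Each TEVp single-site mutant (parent TEVp 0) is paired with a single-site variant of the 7-mer TEVs (canonical ENLYFQ|S). The substrate sits between flexible linkers in a Bxb1-sfGFP-TEVs-SsrA fusion, so cleavage stabilises Bxb1 and speeds flipping of a recombination array, read by NGS. The value is the raw area under the fraction-flipped curve over 0-4 h after rhamnose induction (AUC4h), with ≥20 reads per time point. It is not background-subtracted; inactive controls average about 0.047.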
# 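Further: Bxb1 expression induced with 0.2% (w/v) L-rhamnose at OD600 near 0.5, cultures sampled hourly, flipped fraction per protease–substrate barcode pair counted by paired-end Illumina sequencing.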
Variant,area with substrate ENLCFQS,area with substrate ENLDFQS,area with substrate ENLEFQS,area with substrate ENLFFQS,area with substrate ENLGFQS,area with substrate ENLHFQS,area with substrate ENLIFQS,area with substrate ENLKFQS,area with substrate ENLMFQS,area with substrate ENLNFQS,area with substrate ENLPFQS,area with substrate ENLSFQS,area with substrate ENLVFQS,area with substrate ENLWFQS,area with substrate ENLAFQS,area with substrate ENLQFQS,area with substrate ENLRFQS,area with substrate ENLTFQS,area with substrate ENLLFQS
F41D,0.0816,0.0647,0.0532,0.0558,0.0358,0.0612,0.0722,0.0599,0.056,0.0633,0.0367,0.0573,0.0541,0.044,,,,,
W212V,0.0773,0.0704,0.072,0.086,0.0746,0.0618,0.079,0.0892,0.0511,,0.0614,0.0801,0.126,0.0839,0.0787,0.0742,0.0841,0.0746,
D11E,0.0605,0.0598,0.0664,0.102,0.0718,0.0518,,0.0736,0.0696,0.0653,0.0634,0.0622,0.0695,,,0.0589,0.0419,,0.0836
R106Q,0.0524,0.0581,0.0683,0.0924,,0.0531,,0.0791,,0.0703,0.0552,0.0504,0.0784,0.0502,,0.0688,0.0914,,0.092
Y12V,0.0783,0.0622,0.0762,0.0732,,0.0671,,0.0777,0.0715,0.058,0.0586,0.0593,0.093,0.0647,,0.0621,0.0635,,0.079
F101W,0.0607,0.0708,,0.101,0.0651,,,0.0849,,0.0573,0.0848,0.0641,,,,,0.0763,,0.0728
E224L,,0.0585,,0.0779,,0.0658,0.0888,,,0.0575,0.0654,,,,0.0561,,0.0718,,0.0558
E224Q,0.0662,0.0564,0.0533,0.087,0.0661,0.0671,0.0766,0.0732,,0.07,0.0491,0.0682,0.0953,0.0693,0.0904,,,,0.0925
E224I,0.064,0.0706,0.0629,0.0901,,0.0757,0.0789,0.0852,0.0697,0.0741,0.0613,0.0769,,,0.0665,0.0636,0.0716,,0.0512
P104C,0.0797,0.0567,0.0599,0.0705,0.0611,0.0592,0.075,0.0629,0.0551,0.0607,0.0583,0.0569,,0.0574,,0.0687,0.065,0.0649,0.0928
P104K,0.064,0.0654,0.0237,0.0673,,,0.0466,0.0324,0.0519,,0.0382,0.0365,,0.0427,,,,,0.0536
I15L,0.0769,0.059,0.0632,0.0843,0.0722,0.0702,0.0761,0.0724,0.0659,0.0642,0.0616,0.0611,,0.0582,,,0.0705,,0.0638
E231W,,0.0581,0.0713,0.0809,0.0724,0.0621,0.0748,0.0745,0.0604,0.0559,0.0631,0.0557,,0.0822,0.0556,0.0591,0.0677,,0.0688
V57R,0.0744,,0.0612,0.0826,,,,0.0781,,0.0733,0.0591,,,0.0719,,,0.0863,,
T72K,0.0713,0.0662,0.0686,0.0931,,0.0728,,0.0862,0.0616,0.0529,0.0528,0.0756,0.0876,0.0617,,0.0673,0.0694,,0.0797
S4L,0.0538,0.0687,0.0572,0.0693,0.071,0.0574,0.0747,0.0706,,0.0683,0.0583,0.0674,0.0682,0.0688,,0.0658,0.0738,,0.0618
K216A,0.0585,0.0586,,0.0818,0.0539,,,0.0685,,0.0593,,0.0553,0.0675,,0.0558,,,,
K216M,,,0.0427,,,,0.0653,0.0691,0.0802,,0.0623,,,,0.0582,0.0767,,0.0769,
K216P,,0.0556,,0.0679,0.0557,,,0.0729,,,0.0622,,,,0.0578,,,,0.0728
K216V,,0.0608,0.0613,0.0867,0.0601,,,,,0.0777,0.0569,0.0772,,0.0806,0.0653,,,0.0933,
K216N,0.0744,,0.0622,0.0544,,0.0666,0.0382,0.0845,0.069,0.0239,0.0651,0.0657,0.0902,,0.0801,,,,
A232L,,0.0779,,0.0802,0.0677,,0.108,0.0744,,0.087,0.0564,0.043,,0.0743,0.0612,0.0869,0.0897,,0.0567
A232E,0.0691,0.0582,0.0573,,,0.0598,0.0556,0.0854,0.0603,0.0667,0.0693,0.0528,0.12,0.0901,0.0618,0.0707,0.0926,,
A232R,0.0608,,0.0591,0.0823,,0.0707,,0.0945,,0.052,0.0663,0.0641,,0.0662,0.07,,0.0795,,0.08
N24F,0.0836,0.0715,0.0643,0.0751,0.0855,,0.0591,0.0743,,0.0663,0.0616,0.0583,0.0677,0.062,,0.0569,,,
L56A,0.0502,0.0497,,0.0661,0.0584,0.0577,,0.0633,0.0682,0.0506,,,,0.0536,,,0.0659,,
F226D,,,0.0629,0.0954,,,,0.0826,,0.0612,0.0555,,,,0.0728,0.0814,,,0.0768
F65A,0.0708,0.047,,0.0904,,0.0683,,0.081,,0.0695,,0.0555,,,,0.0824,,,0.0699
